# Measurements taken from PubChem BioAssay AID485344 (National Center for Advancing Translational Sciences (NCATS), 2010).
# About 6,900 (2%) of roughly 340,000 compounds were called active. Cut-off read from the data, not from the text of the source: active = inhibition above about 30%; inactive = below that, where a call was filed. The list shows a part of the results, in another mix than the full data. Entries without a call were filed so in the source.
# Target: D(2) dopamine receptor (Homo sapiens) (UniProt P14416)
# UniProt P14416, sequence (P14416 whole entry, looked up): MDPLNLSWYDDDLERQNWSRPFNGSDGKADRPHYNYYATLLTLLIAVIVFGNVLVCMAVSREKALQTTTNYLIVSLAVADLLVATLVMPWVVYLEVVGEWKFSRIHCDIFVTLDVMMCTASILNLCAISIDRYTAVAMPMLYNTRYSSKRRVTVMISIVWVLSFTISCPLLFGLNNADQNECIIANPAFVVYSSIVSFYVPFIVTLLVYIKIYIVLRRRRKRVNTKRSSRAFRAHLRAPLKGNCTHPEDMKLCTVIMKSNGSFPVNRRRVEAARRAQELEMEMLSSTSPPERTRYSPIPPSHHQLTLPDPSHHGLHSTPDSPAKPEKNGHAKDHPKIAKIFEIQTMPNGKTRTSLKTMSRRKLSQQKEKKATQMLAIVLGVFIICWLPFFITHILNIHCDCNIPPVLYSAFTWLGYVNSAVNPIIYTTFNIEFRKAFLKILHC
# Test: HTS Assay for Allosteric Antagonists of the Human D2 Dopamine Receptor: Primary Screen for Antagonists; note: 0% is about no effect
# Settings: HEK293 TREx D2 cells, calcium flux, dopamine EC80; at 10 µM; stronger effect = higher value
# Procedure, shortened: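 Dopamine at EC80 is the agonist stimulus; test compounds precede it by 180 s. Calcium flux read kinetically in a force-coupled, inducible HEK293 T-REx D2 cell line.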
row,Compound,inhibition
1,CCNc1ccc(-c2nc(-c3ccncc3)no2)cc1[N+](=O)[O-],-18.6%
2,CCn1c(=O)cc(OCC(=O)N2CCN(c3cccc(Cl)c3)CC2)c2ccccc21,-11.3%
3,CCCOc1ccc(NC(=O)CC2C(=O)N(c3ccc(F)cc3)C(=O)N2CC(C)C)cc1 (stereo unspecified),18.8%
4,COc1cc(C(=O)N2CCC(c3nc4ccccc4s3)CC2)cc(OC)c1OC,4.82%
5,CCCCOc1ccc(CNC(=O)C2CCCN(c3nnc(-n4c(C)ccc4C)s3)C2)cc1 (stereo unspecified),-9.5%
6,COc1ccc(C2=C(C)C(=NCc3ccc(OC(C)C)cc3)NS2(=O)=O)cc1,4.41%
7,Cc1ccc2c(c1)sc1nc(=O)n(-c3ccc(Cl)c(Cl)c3)c(=O)n12,9.88%
8,CN(CCOc1ccc(Cl)c(Cl)c1)Cc1ccccc1,active: 65.4%
9,CCc1ccccc1NC(=O)CN1C(=O)c2cccnc2Sc2ccccc21,12.2%
10,CCn1c(=O)c2sccc2n2c(CCC(=O)Nc3ccc(OC)cc3OC)nnc12,-12.5%
11,Cc1ccc(Cn2c(CNC(=O)Cc3cccc([N+](=O)[O-])c3)nc3cccnc32)cc1,3.86%
12,CC(C)N1CCN(Cc2ccsc2)CC1CCO (stereo unspecified),active: 44.4%
13,O=S(=O)(NCC(c1ccccc1)N1CCc2ccccc21)c1ccccc1 (stereo unspecified),1.64%
14,CCn1c(=N)c(C(=O)NCC2CCCO2)cc2c(=O)n3cc(C)ccc3nc21 (stereo unspecified),0.247%
15,O=c1c2ccccc2n(Cc2c(F)cccc2Cl)c(=O)n1Cc1ccccc1,-7.08%
16,COCc1nc2ccccc2n1Cc1cccc(C)c1,1.02%
17,COc1ccc(-c2nc3ccccc3s2)cc1NC(=O)c1cccc([N+](=O)[O-])c1C,1.57%
18,CC(NC(=O)CSc1nc(-c2cccc(Cl)c2)nc2cc(=O)[nH]n12)c1nc2ccccc2n1C (stereo unspecified),0.171%
19,CCCOc1ccc(C2c3c(-c4ccccc4O)n[nH]c3C(=O)N2Cc2cccnc2)cc1 (stereo unspecified),11.6%
20,CC(C)OCCCn1c(=O)c2ccccc2n2c(-c3cc(Cl)ccc3O)nnc12,15.3%
21,Cc1cn2c(=O)cc(COC(=O)c3ccc(NC(=O)COc4ccc(C)c(C)c4)cc3)nc2s1,-3.46%
22,COc1cc(C(=O)Nc2ccc(-c3nc4ccccc4o3)c(O)c2)cc(OC)c1OC,12.4%
23,CCc1ccccc1NC(=O)CSc1nnc(COc2ccccc2Cl)o1,21.1%
24,CCOc1ccc(-c2cc(C(=O)NCCCOC)c3c(-c4ccc(CC)cc4)[nH]nc3n2)cc1,-1.16%

row,Compound,inhibition
1,COc1cc2c(cc1OC)C(COc1ccc(F)cc1)N(C(=O)Cc1ccccc1)CC2 (stereo unspecified),3.48%
2,COC(=O)c1ccccc1NC(=O)c1cc(CN2CCOCC2)on1,4.05%
3,CCOc1cc(C(=O)NCc2nc(-c3cccc(C)c3)no2)cc(OCC)c1OCC,16.3%
4,CCc1cccc(C)c1Nc1c(-c2cccs2)nc2nc(C)cc(C)n12,-0.896%
5,O=C(CSc1nc2ccccc2nc1Cc1ccccc1F)Nc1cccc(C(F)(F)F)c1,2.32%
6,COc1ccc(-c2onc(C)c2C)cc1S(=O)(=O)Nc1cc(Cl)ccc1C,-6.22%
7,CCC(=O)Nc1ccc(CC)cc1-c1nc2ccccc2n(CC(=O)Nc2ccccc2C)c1=O,13.2%
8,Cc1ccc(NC(=O)Cn2c(=O)oc3cc(S(=O)(=O)N4CCCCC4)ccc32)c(C)c1,5.02%
9,COc1ccc(-c2cc3nc(C)c(CCC(=O)N4CCN(c5ccccc5F)CC4)c(C)n3n2)c(OC)c1,14.1%
10,Cc1ccc(CNc2ncnc3onc(C)c23)cc1,-0.202%
11,CCN(CC)c1ccc(NC(=O)CCS(=O)(=O)c2ccc3c(c2)oc(=O)n3C)c(C)c1,-8.01%
12,Cc1nn2c(=O)cc(COc3ccc(/C=C(\C#N)C(=O)Nc4ccccc4)cc3Cl)nc2s1,-8.09%
13,O=C(OCc1ccccc1Cl)c1ccc(-c2nnn(Cc3ccc(F)cc3)n2)cc1,9.66%
14,Brc1ccc2c(c1)NC(c1cccnc1)=NC(c1ccccc1)=N2,9.68%
15,Cc1ccc(CN2c3ccccc3-c3nc(SCC(=O)Nc4c(C)cc(C)cc4C)ncc3S2(=O)=O)cc1,-1.09%
16,Cc1noc(C)c1S(=O)(=O)N1CCN(c2ccccc2)CC1,active: 38.4%
17,COc1ccc(NC(=O)Nc2cc(-c3cn4cccnc4n3)ccc2OC)cc1,-22.1%
18,CCOc1ccccc1NC(=O)N1CCc2c(sc3c2CCCC3)C1c1ccccc1 (stereo unspecified),-9.36%
19,CCCCSCCCNC(=O)c1c[nH]c2ccc(S(=O)(=O)Nc3cccc(OC)c3)cc2c1=O,-7.82%
20,COc1ccccc1CN1C(=O)C(=O)c2cccc(C)c21,3.69%
21,COc1ccc(-n2ccnc(NCCc3ccc(Cl)cc3)c2=O)cc1OC,-2.07%
22,CC(=O)N1c2ccc(S(=O)(=O)N(C)CC(=O)N(Cc3ccccc3)C(C)C)cc2CC1C (stereo unspecified),11.1%
23,O=C(Cc1ccccc1)Nc1nnc2n1CCS2,-13.8%
24,CCN(Cc1ccccc1)Cc1c(O)ccc2oc(C)c(C(=O)Nc3ccccc3C)c12,4.82%

row,Compound,inhibition
1,CCC(C)NC(=O)Cn1c(=O)n(-c2ccc(C)c(C)c2)c(=O)c2c(C)c(C(=O)N(CC)CC)sc21 (stereo unspecified),7.73%
2,CCOc1ccccc1NC(=O)CSC1=Nc2ccccc2C2=NC(CC(=O)NCc3ccc4c(c3)OCO4)C(=O)N12 (stereo unspecified),8.94%
3,Cc1nn(CC(=O)NCCc2ccccc2)c(=O)c2c1sc1ccccc12,12.8%
4,O=c1cc(-c2ccccc2)n2c(SCc3ccc(Br)cc3)nnc2[nH]1,8.67%
5,COc1ccc(C(CCN2CCN(c3ccccc3)CC2)c2c(O)cc(OC)cc2OC)cc1 (stereo unspecified),active: 79.6%
6,CCn1c(C(=O)N2CCCC(C(=O)N3CCN(c4ccccc4)CC3)C2)cc2sccc21 (stereo unspecified),-2.34%
7,COc1ccc(-c2cc3nccc(-c4cc(Cl)c(C)cc4O)n3n2)cc1,-5.06%
8,C/C(=N\Nc1cccc([N+](=O)[O-])c1)c1cc(F)ccc1O,active: 35.1%
9,O=[N+]([O-])c1ccc(Cl)c(CN2CCN(c3ncccn3)CC2)c1,active: 33.2%
10,CCn1cc(C(=O)N2CCN(c3ccc(OC)cc3)CC2)c2cc(OC)c(OC)cc2c1=O,1.63%
11,CCOc1ccccc1C1C(C(=O)Nc2ccccc2)=C(C)Nc2c(C(=O)Nc3ccc(F)cc3)cnn21 (stereo unspecified),15.7%
12,CCOc1ccc(-c2cccc(NS(=O)(=O)c3ccccc3C(F)(F)F)c2)nn1,-3.8%
13,Cc1ccc(NC(=O)Cn2cc(C(=O)c3ccco3)c3ccccc32)cc1,15.2%
14,O=S(=O)(c1ccc2nc(Nc3cccc(F)c3)ccc2c1)N1CCCC1,3.57%
15,Cc1ccccc1Cn1c2ccccc2c2cnn(CC(=O)N3CCC(C)CC3)c(=O)c21,-1.37%
16,Cc1ccc(S(=O)(=O)NCC(Nc2cccc(Cl)c2)c2ccccc2)cc1 (stereo unspecified),15.5%
17,CCOc1ccccc1C(=O)Nc1ccc2nc3c(c(Nc4ccc(OC)c(OC)c4)c2c1)CCCC3,-8.85%
18,O=C(NCc1ccc(F)cc1)c1ccc2c(c1)nc1n2CCCCC1,-16.3%
19,Cc1ncc(CO)c2c1Oc1nc(-c3ccc(F)cc3)nc(SCc3ccc(F)cc3Cl)c1C2,-8.87%
20,Cc1cc(O)c2c(C)c(CC(=O)N3CCCCC3)c(=O)oc2c1,1.26%
21,COc1ccc(-c2noc(-c3nnn(-c4ccc(C(C)C)cc4)c3C)n2)cc1OC,-6.83%
22,Cc1cc(Nc2cccc(Cl)c2)nc2ccc(NC(=O)c3cccc(N(C)C)c3)cc12,4.31%
23,O=C(Nc1ccccc1)c1ccc2c(O)c(S(=O)(=O)c3ccc(Cl)cc3)c(=O)[nH]c2c1,-8.79%
24,COc1ccccc1C(=O)Nc1onc2c1CCCC2,13.1%

row,Compound,inhibition
1,CCOC(=O)c1ccc(NC(=O)CN2Cc3ccccc3C2=O)cc1,2.15%
2,Cc1cc2[nH]c(=O)c(=O)[nH]c2cc1S(=O)(=O)Nc1ccc(OC(F)(F)F)cc1,7.48%
3,Cc1cccc(OC(=O)c2cc(-c3ccc4c(c3)OCCO4)on2)c1C,-14.1%
4,Cc1cccc(N2CCN(c3ccc(NC(=O)c4ccccc4)cc3C(=O)O)CC2C)c1 (stereo unspecified),14%
5,COc1ccc(-c2noc(CSc3nc(N)cc(=O)[nH]3)n2)cc1,0.423%
6,Cc1cccc(NC(=O)c2ccc3nc(CCc4ccccc4)oc3c2)c1C,-7.41%
7,COc1cccc(C2/C(=C(\O)c3ccc4c(c3)OCCO4)C(=O)C(=O)N2Cc2cccnc2)c1 (stereo unspecified),active: 30.9%
8,CSc1ncc(Cl)c(C(=O)Nc2c(C(=O)c3ccc(C)c(F)c3)oc3ccccc23)n1,0.0341%
9,COc1cccc(NC(=O)CCc2nc(-c3cccs3)no2)c1,-8.31%
10,CCOc1ccc(C2C(=O)N(C3CCCCC3)CC(=O)N2CCC2=CCCCC2)cc1OC (stereo unspecified),4.57%
11,CCOc1ccc(C(=O)c2cn(CC(=O)Nc3ccc(F)c(F)c3)c3cc4c(cc3c2=O)OCCO4)cc1,2.48%
12,C/C=C/c1ccc(OCCCCN2CCC(C)CC2)c(OC)c1,active: 45.6%
13,Cc1ccc(-n2c(-c3cccc(C)c3)nc3c(cnn3-c3ccccc3)c2=O)cc1,8.53%
14,Cn1c(=O)oc2cc(S(=O)(=O)N3CCCC(C(=O)N4CCN(c5ccc(F)cc5)CC4)C3)ccc21 (stereo unspecified),-5.63%
15,CCc1nn2c(=O)cc(COC(=O)c3ccccc3NC(=O)c3ccc(C(C)(C)C)cc3)nc2s1,12.6%
16,Cc1ccccc1OCC(=O)Nc1nnc(S(=O)(=O)N2CCCCCC2)s1,13.7%
17,CC(Oc1ccc(Br)cc1)C(=O)N(Cc1nc(-c2ccccc2)no1)C(C)C (stereo unspecified),5.36%
18,CSc1cccc(NC(=O)C2CCCN(S(=O)(=O)c3ccc4c(c3)CCCN4C(C)=O)C2)c1 (stereo unspecified),11.2%
19,COc1ccccc1N1CCN(Cc2cc3c(cc2O)OCO3)CC1,active: 98.4%
20,S=C(Nc1ccccc1)NC1CCN(Cc2ccccc2)CC1,active: 92.1%
21,CCN(C(=O)COc1ccccc1)c1nnc(-c2cccnc2)s1,active: 41.5%
22,Cc1ccc(C2c3[nH]c4ccccc4c3CCN2C(=O)CSc2ccccc2)cc1 (stereo unspecified),-6.29%
23,COc1ccc(-c2nc(CSc3nnc(C)n4c3cc3sccc34)c(C)o2)cc1,10.3%
24,O=C(Nc1c(C(=O)N2CCN(c3ccccc3F)CC2)oc2ccccc12)c1ccc(Br)o1,22.9%
